Source: the RNAGym collection of RNA variant scans (doi:10.7554/elife.90254)
Read counts are not given, so values of variants with three or more changes are uncertain.

B1: OR4K15 (parent)
chain: GUUAACGGUCAUAGGCCAUGGAAACUAGGAGCACCAUUUCGCUGCCAGUGAAGAAAUGAACAAAGAAAAUCUGGGCCAGGCAGGCAUCAAAAGAAAUAGUCUUGCGCUCAACCAGAAAGUCUGUAAUCAUUUUAAGGGUA

Variants of: B1
Test: self-cleavage, relative activity (ratio to wild type); higher = more cleavage; in vitro, sequencing; the parent is a self-cleaving ribozyme

Row | Variant | self-cleavage
1 | U38A A51G U108C | 0.01
2 | A51U A82U G136A | 0.12
3 | A47G A90G A118G U130C | 0.06
4 | A24G U37C A56G | 2.4
5 | A52U A86U A89G A94G | 2.59
6 | U57A A59G A63G A114G | 0.32
7 | A51G A92G A96C | 0.11
8 | A96G U100A A116G | 0.11
9 | A13U U38C A60G | 2.01
10 | A51G A55G A90G A110G A116G U132G | 0
11 | A11G A23U C45U A60G U124A | 0.82
12 | A23G A51U U102C | 1.47
13 | U9A A60G U122C | 0.88
14 | A63G A64G A67G | 0.93
15 | A52G A59U A117G | 2.12
16 | A11G U72C A90U U122A | 0.28
17 | A66G A67G A118G | 1.14
18 | C17U A23G A52G A63U | 0.42
19 | A22G A63G U132C | 1.32
20 | A55G A67G A68G A98G A118G | 0.12
21 | A63G A86G A91G | 0.05
22 | U19C A22U C25U A69G | 1.07
23 | A18G A69G A86G A96G | 1.78
24 | A24G U38A U49A U70C A118G | 1.09

Row | Variant | self-cleavage
25 | A11U U57C U87C A111G | 0.03
26 | A30G A47G C77U | 1.62
27 | U9A G79A A95G | 0.06
28 | U2A A23G U49C A55G U70C G75C U87C | 0.2
29 | U39C A47G A82C U120C G136A | 0.04
30 | U49C A89U A90G A92G | 1.15
31 | A36G A68U A117G A134G | 1.98
32 | A55C U70C U131C | 0.27
33 | A68G A82C A91G | 0.08
34 | U72A A82U U108A A117G | 0.01
35 | A11G U102C A118G A126G | 0.79
36 | A13G A90G A95G | 1.72
37 | A22G U108A A134G | 0.02
38 | A55G A59G A116U U127C U139C | 0.25
39 | A33G U49C U87C | 0.55
40 | A64U A92G A118G | 0.74
41 | C34U U72C A78G A129G | 0.14
42 | A22G A116G U127C U132C | 0.18
43 | A47U A68G U108C A134G | 0.02
44 | A5G A89G U97C | 0.73
45 | A51G A59U A95G C107U A114U | 0.03
46 | A68G U72A A78U | 0.21
47 | A24G A98U C109U | 0.78
48 | A4C U37C A51G A60G U132C | 1.24

Row | Variant | self-cleavage
49 | A18U A52G A67G U102G U108C | 0.04
50 | U37C A54G U127C A129G | 0.62
51 | A23G C42U U43C | 1.12
52 | U43C A62G A118G | 1.06
53 | A30G A59U A86G G123A | 1.09
54 | G21C A64G A78G | 0.21
55 | A13U U39C G80U A111G A129G | 0.01
56 | G53A A62G A67G A78U A135G | 0.41
57 | A22U U37G U87C U102A | 0.17
58 | U9A A67G A95G | 2.19
59 | A33G A59G A118G | 0.61
60 | A11G A51U A91U | 0.63
61 | A67G U70C A116C U130C | 0.03
62 | A47G A89G A98G | 0.31
63 | A11G A69G A116U | 0.24
64 | A55G U57C A64G | 0.52
65 | A68C U72C A96G | 0.13
66 | A67G A82G A90G U120C | 0.13
67 | A66G A92G A140U | 1.6
68 | A4G A11G A30G | 0.94
69 | A24G A47G A95C | 0.82
70 | A56G A78G A96C U103C | 0.06
71 | G83A U87C U102A | 0.18
72 | G99A A111G A116G U131C | 0

Row | Variant | self-cleavage
73 | A47G A82U U102C | 0.3
74 | A47G U87C A91U U120C | 0.49
75 | A24G A110G A117G | 0.2
76 | U12C G75C A126G | 0.12
77 | U12A A18U G21A A78U A117G | 0.61
78 | U2C A60G U131C | 0.77
79 | A52G A92G A118U | 0.51
80 | A23G A47U A55G A96G A111G G123A | 0.01
81 | U39A A66G A68U G99A U124C | 0.54
82 | C6U A62U A140G | 0.78
83 | U9C A63G A118G G136U | 1.22
84 | A18U A51G U57C A68G U108C A116G | 0
85 | A18G A96G A111G | 0.01
86 | C6U A59G C101U | 0.5
87 | G8A A52U A67G | 1.99
88 | A36U A66U U131C | 1.33
89 | A23U U38A A69G | 1.15
90 | G15A A55U A59G | 1
91 | A23G U49A A86U A95G A96G | 1.5
92 | A30G A82U U102A A118G | 0.68
93 | A22G U38A A54G | 1.36
94 | U39A U87C A129U | 0.7
95 | U9A A90U A129G | 1.73
96 | A5G A60G A114G | 0.69

Row | Variant | self-cleavage
97 | U38C G84U A95G U108C U131C | 0
98 | C6A A64G A92G U122A | 0.57
99 | U39A A51G A54G A92G | 1.87
100 | A52G A56G A69G | 1.28
101 | A56G A86C U97C A111G | 0.01
102 | A23U A60G A64G | 1.27
103 | A92G A94G U102C | 1.07
104 | A54G A92G A114G A135G | 0.14
105 | U19C A55G A95G A111G | 0.01
106 | U9C U127C U130C | 0.93
107 | A11U A24U U120C | 0.94
108 | A30G A33G A51G U108A | 0.01
109 | A47G A56G A59G A63G | 0.76
110 | A54G A56G A68G | 1.21
111 | A52G C107U A135G | 0.06
112 | U2A A24U A54G | 1.04
113 | A11G A36U A62C U130C A140U | 0.88
114 | U9A A51G A86G | 1.11
115 | G53A G58A A118U A135G | 0.41
116 | A23G A62U G84A A95G A96G U108C A126G | 0.01
117 | U38A A52G A60G U124C A140G | 0.3
118 | A11G A56G U103A | 0.59
119 | A24G U39C A67G A86G A92G U132C | 1.25
120 | A51U A54G U120C | 1.04

Row | Variant | self-cleavage
121 | A18U G74U A92G U108G A117G | 0.03
122 | A30G A51G A64G A118C U131C | 0.04
123 | U9C A11G G65U A110G A129G | 0.08
124 | A11G U38A A54G U100C A111G | 0.04
125 | A55G A78G A89G A96U | 0.33
126 | A22G A91G U124C | 0.24
127 | U9A A78G U132C | 0.11
128 | U9C U122C U127A | 1.99
129 | A23G U103A U108C A110G | 0.01
130 | U2C U87A A92U | 1.1
131 | A11C G14A U19A U70C A86G U102A | 0.12
132 | A30G C85U A94G | 0.65
133 | U38C U39C U72C | 0.38
134 | U37C A63C A68G A82G A116U | 0.05
135 | U12A U43A A67U U72C A82G U100A A111G A114C A135G | 0
136 | A51C A89G A91G A92G | 0.48
137 | A22G A36U G58U A90G U132A | 1.74
138 | A18U A33C A52U A82U U87C | 0.19
139 | U19A G93A U122C | 1.92
140 | A24G U57C A95G U97C U131A | 0.57
141 | A66U C85U A94U U108C A118G | 0.02
142 | A51G U122A A140U | 2.32
143 | A47U A56G A67G A98G | 0.06
144 | U38C U43A U57C A64U A117U | 0.51

Row | Variant | self-cleavage
145 | G1A U9G A116U U131C | 0.06
146 | U37G G41A A60G A64G A95G | 0.82
147 | A36G A51G A92G A95G | 3
148 | A23G A24G C45U A56G A59G A64G A94G | 1.19
149 | A18U A24G U108A | 0.03
150 | U3G A64G G80A A140G | 0.2
151 | A27G A36G U38C U43A C76U U100C | 0.07
152 | C6U A30G A91G | 0.75
153 | A5G A95G U108C U131C | 0.01
154 | A23G U37C A51G A114C A118G | 0
155 | A24G G31C A52G | 1
156 | G20A A67G A86G A91C U102C U130C | 1.55
157 | A22U U26C A64U C71U | 0.18
158 | A11U A92G U108A | 0.03
159 | U39C G74A U130C | 0.11
160 | A52G U70A U139C | 1.16
161 | U2C U97C A117G | 1.14
162 | U9C U19C A78G | 0.46
163 | A23G A78G U124C | 0.18
164 | A63U A110G U133C | 0.16
165 | A23G A59G A94G | 0.77
166 | A95G U131C G137A | 1.53
167 | A52G A60U A89G | 1.46
